{"source": "the supplement of paper PMC8728848", "binders": {"B1": {"name": "LcH (Lens culinaris), P02870 (protein)", "chain": "TETTSFSITKFSPDQQNLIFQGDGYTGKEGLTLTKVSKETGGRALYSTPIHIWDRDTVNVANFVTNGSQVFRESPNGYNVADGFTFFIAPVDTKPQTGGGYLGVFYNGKEYDKTSQTVAVEFDTFYNAAWDPSNKERHIGIDVNSIKSVNTKSWNLQNGVTSYTLNEVVPLKDVVPEWVRIGFSATTGAEFAAQEVHSWSFNSQLGHTSKS"}}, "assay_in_all_cases": "glycan array binding signal (z-score within array); higher = stronger binding", "conditions_in_all_cases": "glycan notation: IUPAC condensed, linker removed", "key": {"[1]": {"molecular_target": "Neu5Ac(a2-6)Gal(b1-4)GlcNAc(b1-2)Man(a1-3)[Man(a1-6)]Man(b1-4)GlcNAc(b1-4)GlcNAc", "summary_of_the_method": "(§1)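 The binding signal is a Z-score computed within each array and averaged over linkers. Arrays of the same protein sequence at different concentrations or buffers were also averaged together. Data originate from 3228 arrays in the Consortium for Functional Glycomics database, kept only where the protein sequence was available.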"}, "[2]": {"molecular_target": "Neu5Ac(a2-6)Gal(b1-4)GlcNAc(b1-2)Man(a1-3)[Neu5Ac(a2-6)Gal(b1-4)GlcNAc(b1-2)Man(a1-6)]Man(b1-4)GlcNAc(b1-4)GlcNAc", "summary_of_the_method": "as §1"}, "[3]": {"molecular_target": "Neu5Ac(a2-6)Gal(b1-4)GlcNAc(b1-2)Man(a1-6)Man(b1-4)GlcNAc(b1-4)GlcNAc", "summary_of_the_method": "as §1"}, "[4]": {"molecular_target": "Neu5Ac(a2-6)Gal(b1-4)GlcNAc(b1-2)Man(a1-6)[Gal(b1-4)GlcNAc(b1-2)Man(a1-3)]Man(b1-4)GlcNAc(b1-4)GlcNAc", "summary_of_the_method": "as §1"}, "[5]": {"molecular_target": "Neu5Ac(a2-6)Gal(b1-4)GlcNAc(b1-2)Man(a1-6)[GlcNAc(b1-2)Man(a1-3)]Man(b1-4)GlcNAc(b1-4)GlcNAc", "summary_of_the_method": "as §1"}, "[6]": {"molecular_target": "Neu5Ac(a2-6)Gal(b1-4)GlcNAc(b1-2)Man(a1-6)[Man(a1-3)]Man(b1-4)GlcNAc(b1-4)GlcNAc", "summary_of_the_method": "as §1"}, "[7]": {"molecular_target": "Neu5Ac(a2-6)Gal(b1-4)GlcNAc(b1-3)Gal(b1-3)GlcNAc", "summary_of_the_method": "as §1"}, "[8]": {"molecular_target": "Neu5Ac(a2-6)Gal(b1-4)GlcNAc(b1-3)Gal(b1-4)GlcNAc", "summary_of_the_method": "as §1"}, "[9]": {"molecular_target": "Neu5Ac(a2-6)Gal(b1-4)GlcNAc(b1-3)Gal(b1-4)GlcNAc(b1-3)Gal(b1-4)GlcNAc", "summary_of_the_method": "as §1"}, "[10]": {"molecular_target": "Neu5Ac(a2-6)Gal(b1-4)GlcNAc(b1-3)Gal(b1-4)[Fuc(a1-3)]GlcNAc(b1-3)Gal(b1-4)[Fuc(a1-3)]GlcNAc", "summary_of_the_method": "as §1"}, "[11]": {"molecular_target": "Neu5Ac(a2-6)Gal(b1-4)GlcNAc(b1-3)GalNAc", "summary_of_the_method": "as §1"}, "[12]": {"molecular_target": "Neu5Ac(a2-6)Gal(b1-4)GlcNAc6S", "summary_of_the_method": "as §1"}, "[13]": {"molecular_target": "Neu5Ac(a2-6)GalNAc", "summary_of_the_method": "as §1"}, "[14]": {"molecular_target": "Neu5Ac(a2-6)GalNAc(b1-4)GlcNAc", "summary_of_the_method": "as §1"}, "[15]": {"molecular_target": "Neu5Ac(a2-6)GlcNAc(b1-4)GlcNAc", "summary_of_the_method": "as §1"}, "[16]": {"molecular_target": "Neu5Ac(a2-6)GlcNAc(b1-4)GlcNAc(b1-4)GlcNAc", "summary_of_the_method": "as §1"}, "[17]": {"molecular_target": "Neu5Ac(a2-8)Neu5Ac", "summary_of_the_method": "as §1"}, "[18]": {"molecular_target": "Neu5Ac(a2-8)Neu5Ac(a2-3)Gal(b1-4)Glc", "summary_of_the_method": "as §1"}, "[19]": {"molecular_target": "Neu5Ac(a2-8)Neu5Ac(a2-3)[GalNAc(b1-4)]Gal(b1-4)Glc", "summary_of_the_method": "as §1"}, "[20]": {"molecular_target": "Neu5Ac(a2-8)Neu5Ac(a2-8)Neu5Ac", "summary_of_the_method": "as §1"}, "[21]": {"molecular_target": "Neu5Ac(a2-8)Neu5Ac(a2-8)Neu5Ac(a2-3)Gal(b1-4)Glc", "summary_of_the_method": "as §1"}, "[22]": {"molecular_target": "Neu5Ac(a2-8)Neu5Ac(a2-8)Neu5Ac(a2-3)[GalNAc(b1-4)]Gal(b1-4)Glc", "summary_of_the_method": "as §1"}, "[23]": {"molecular_target": "Neu5Ac(a2-8)Neu5Ac(a2-8)Neu5Ac(a2-8)Neu5Ac(a2-3)[GalNAc(b1-4)]Gal(b1-4)Glc", "summary_of_the_method": "as §1"}, "[24]": {"molecular_target": "Neu5Ac(b2-6)Gal(b1-4)GlcNAc", "summary_of_the_method": "as §1"}, "[25]": {"molecular_target": "Neu5Ac(b2-6)GalNAc", "summary_of_the_method": "as §1"}, "[26]": {"molecular_target": "Neu5Ac9Ac(a2-3)Gal(b1-3)GlcNAc", "summary_of_the_method": "as §1"}, "[27]": {"molecular_target": "Neu5Ac9Ac(a2-3)Gal(b1-4)GlcNAc", "summary_of_the_method": "as §1"}, "[28]": {"molecular_target": "Neu5Ac9Ac(a2-6)Gal(b1-4)GlcNAc", "summary_of_the_method": "as §1"}, "[29]": {"molecular_target": "Neu5Gc(a2-3)Gal(b1-3)GlcNAc", "summary_of_the_method": "as §1"}, "[30]": {"molecular_target": "Neu5Gc(a2-3)Gal(b1-3)[Fuc(a1-4)]GlcNAc", "summary_of_the_method": "as §1"}, "[31]": {"molecular_target": "Neu5Gc(a2-3)Gal(b1-4)Glc", "summary_of_the_method": "as §1"}, "[32]": {"molecular_target": "Neu5Gc(a2-3)Gal(b1-4)GlcNAc", "summary_of_the_method": "as §1"}, "[33]": {"molecular_target": "Neu5Gc(a2-3)Gal(b1-4)[Fuc(a1-3)]GlcNAc", "summary_of_the_method": "as §1"}, "[34]": {"molecular_target": "Neu5Gc(a2-6)Gal(b1-4)GlcNAc", "summary_of_the_method": "as §1"}, "[35]": {"molecular_target": "Neu5Gc(a2-6)GalNAc", "summary_of_the_method": "as §1"}, "[36]": {"molecular_target": "Neu5Gc(b2-6)Gal(b1-4)GlcNAc", "summary_of_the_method": "as §1"}}, "note": "Some of the results follow.", "data": [{"binder": "B1", "values": [{"measurement": "glycan array binding signal (z-score)", "setting": "[1]", "value": -0.124}, {"measurement": "glycan array binding signal (z-score)", "setting": "[2]", "value": -0.12}, {"measurement": "glycan array binding signal (z-score)", "setting": "[3]", "value": -0.123}, {"measurement": "glycan array binding signal (z-score)", "setting": "[4]", "value": -0.081}, {"measurement": "glycan array binding signal (z-score)", "setting": "[5]", "value": -0.116}, {"measurement": "glycan array binding signal (z-score)", "setting": "[6]", "value": -0.124}, {"measurement": "glycan array binding signal (z-score)", "setting": "[7]", "value": -0.085}, {"measurement": "glycan array binding signal (z-score)", "setting": "[8]", "value": -0.135}, {"measurement": "glycan array binding signal (z-score)", "setting": "[9]", "value": -0.088}, {"measurement": "glycan array binding signal (z-score)", "setting": "[10]", "value": -0.082}, {"measurement": "glycan array binding signal (z-score)", "setting": "[11]", "value": -0.092}, {"measurement": "glycan array binding signal (z-score)", "setting": "[12]", "value": -0.12}, {"measurement": "glycan array binding signal (z-score)", "setting": "[13]", "value": -0.099}, {"measurement": "glycan array binding signal (z-score)", "setting": "[14]", "value": -0.142}, {"measurement": "glycan array binding signal (z-score)", "setting": "[15]", "value": -0.117}, {"measurement": "glycan array binding signal (z-score)", "setting": "[16]", "value": -0.115}, {"measurement": "glycan array binding signal (z-score)", "setting": "[17]", "value": -0.091}, {"measurement": "glycan array binding signal (z-score)", "setting": "[18]", "value": -0.107}, {"measurement": "glycan array binding signal (z-score)", "setting": "[19]", "value": -0.13}, {"measurement": "glycan array binding signal (z-score)", "setting": "[20]", "value": -0.125}, {"measurement": "glycan array binding signal (z-score)", "setting": "[21]", "value": -0.138}, {"measurement": "glycan array binding signal (z-score)", "setting": "[22]", "value": -0.119}, {"measurement": "glycan array binding signal (z-score)", "setting": "[23]", "value": -0.111}, {"measurement": "glycan array binding signal (z-score)", "setting": "[24]", "value": -0.111}, {"measurement": "glycan array binding signal (z-score)", "setting": "[25]", "value": -0.131}, {"measurement": "glycan array binding signal (z-score)", "setting": "[26]", "value": -0.129}, {"measurement": "glycan array binding signal (z-score)", "setting": "[27]", "value": -0.077}, {"measurement": "glycan array binding signal (z-score)", "setting": "[28]", "value": -0.086}, {"measurement": "glycan array binding signal (z-score)", "setting": "[29]", "value": -0.134}, {"measurement": "glycan array binding signal (z-score)", "setting": "[30]", "value": -0.119}, {"measurement": "glycan array binding signal (z-score)", "setting": "[31]", "value": -0.118}, {"measurement": "glycan array binding signal (z-score)", "setting": "[32]", "value": -0.121}, {"measurement": "glycan array binding signal (z-score)", "setting": "[33]", "value": -0.128}, {"measurement": "glycan array binding signal (z-score)", "setting": "[34]", "value": -0.125}, {"measurement": "glycan array binding signal (z-score)", "setting": "[35]", "value": -0.128}, {"measurement": "glycan array binding signal (z-score)", "setting": "[36]", "value": -0.128}]}]}
